Article PMC9911399, “Two distinct binding modes provide the RNA-binding protein RbFox with extraordinary sequence specificity”
Numbering of substitutions follows the chain as printed; changes in the protein carry UniProt numbers. The list shows a part of the results.

T1: RBFOX1 RRM (Homo sapiens, UniProt Q9NWB1 109-208)
T1 sequence: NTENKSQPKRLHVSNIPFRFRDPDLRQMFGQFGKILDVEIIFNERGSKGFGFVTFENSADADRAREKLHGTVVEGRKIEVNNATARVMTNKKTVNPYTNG

B1: GUGCAGC (DNA:RNA)
RNA: GGGAGACCGGAAUUCAGAUUGUCCGUGCAGCUUAAAUCCCGUCGUAGCCACCA
DNA 1: CAATCTGAATTCCGGTCTCCC
DNA 2: TGGTGGCTACGACGGGATT
B2: AGUUCGA (DNA:RNA)
RNA: B1 RNA with G25A, U26G, G27U, C28U, A29C, C31A
DNA 1: CAATCTGAATTCCGGTCTCCC
DNA 2: TGGTGGCTACGACGGGATT
B3: GGGAUCC (DNA:RNA)
RNA: B1 RNA with U26G, C28A, A29U, G30C
DNA 1: CAATCTGAATTCCGGTCTCCC
DNA 2: TGGTGGCTACGACGGGATT
B4: GUUCCCG (DNA:RNA)
RNA: B1 RNA with G27U, A29C, G30C, C31G
DNA 1: CAATCTGAATTCCGGTCTCCC
DNA 2: TGGTGGCTACGACGGGATT
B5: UGCGUCG (DNA:RNA)
RNA: GGGAGACCGGAAUUCAGAUUGUCCUGCGUCGUUAAAUCCCGUCGUAGCCACCA
DNA 1: CAATCTGAATTCCGGTCTCCC
DNA 2: TGGTGGCTACGACGGGATT
B6: UUGAAAU (DNA:RNA)
RNA: B1 RNA with G25U, C28A, G30A, C31U
DNA 1: CAATCTGAATTCCGGTCTCCC
DNA 2: TGGTGGCTACGACGGGATT
B7: CGCACAG (DNA:RNA)
RNA: B5 RNA with U25C, G28A, U29C, C30A
DNA 1: CAATCTGAATTCCGGTCTCCC
DNA 2: TGGTGGCTACGACGGGATT
B8: ACGAGCU (DNA:RNA)
RNA: B1 RNA with G25A, U26C, C28A, A29G, G30C, C31U
DNA 1: CAATCTGAATTCCGGTCTCCC
DNA 2: TGGTGGCTACGACGGGATT
B9: GAUAAAC (DNA:RNA)
RNA: B1 RNA with U26A, G27U, C28A, G30A
DNA 1: CAATCTGAATTCCGGTCTCCC
DNA 2: TGGTGGCTACGACGGGATT
B10: GUAAAAA (DNA:RNA)
RNA: B1 RNA with G27A, C28A, G30A, C31A
DNA 1: CAATCTGAATTCCGGTCTCCC
DNA 2: TGGTGGCTACGACGGGATT
B11: AACAAUA (DNA:RNA)
RNA: B1 RNA with G25A, U26A, G27C, C28A, G30U, C31A
DNA 1: CAATCTGAATTCCGGTCTCCC
DNA 2: TGGTGGCTACGACGGGATT
B12: GUGACGU (DNA:RNA)
RNA: B1 RNA with C28A, A29C, C31U
DNA 1: CAATCTGAATTCCGGTCTCCC
DNA 2: TGGTGGCTACGACGGGATT
B13: ACCCGCC (DNA:RNA)
RNA: B1 RNA with G25A, U26C, G27C, A29G, G30C
DNA 1: CAATCTGAATTCCGGTCTCCC
DNA 2: TGGTGGCTACGACGGGATT
B14: AAGCGCC (DNA:RNA)
RNA: B1 RNA with G25A, U26A, A29G, G30C
DNA 1: CAATCTGAATTCCGGTCTCCC
DNA 2: TGGTGGCTACGACGGGATT
B15: AUCACAU (DNA:RNA)
RNA: B1 RNA with G25A, G27C, C28A, A29C, G30A, C31U
DNA 1: CAATCTGAATTCCGGTCTCCC
DNA 2: TGGTGGCTACGACGGGATT
B16: CGAGAUG (DNA:RNA)
RNA: B5 RNA with U25C, C27A, U29A, C30U
DNA 1: CAATCTGAATTCCGGTCTCCC
DNA 2: TGGTGGCTACGACGGGATT
B17: UGGGUGU (DNA:RNA)
RNA: B5 RNA with C27G, C30G, G31U
DNA 1: CAATCTGAATTCCGGTCTCCC
DNA 2: TGGTGGCTACGACGGGATT
B18: AUGACCC (DNA:RNA)
RNA: B1 RNA with G25A, C28A, A29C, G30C
DNA 1: CAATCTGAATTCCGGTCTCCC
DNA 2: TGGTGGCTACGACGGGATT
B19: UGGUGCG (DNA:RNA)
RNA: B5 RNA with C27G, G28U, U29G
DNA 1: CAATCTGAATTCCGGTCTCCC
DNA 2: TGGTGGCTACGACGGGATT
B20: GAAGUUC (DNA:RNA)
RNA: B1 RNA with U26A, G27A, C28G, A29U, G30U
DNA 1: CAATCTGAATTCCGGTCTCCC
DNA 2: TGGTGGCTACGACGGGATT

Molecular target: T1, RBFOX1 RRM
Experiment: EMSA; HiTS-Eq, 1 nM pool, 10 min; buffer printed only for the single-RNA assays: 10 mM Tris pH 7.5, 150 mM NaCl, 3.4 mM EDTA, 0.001% NP-40, 30 C
Conditions: tags: His6 N-terminal (pET28a); label: 5' 32P
Procedure, shortened: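 These values rest on relative association constants, computed from read-count changes of each RNA species versus the control reaction and normalised to the cognate motif. Reads came from free RNA recovered by 8% native PAGE after purified RbFox RRM (wild type or mutant) at increasing concentrations was equilibrated for 10 min in 50 µL with 1 nM of a 5′-radiolabelled pool with 7 randomized nucleotides and DNA-annealed flanks.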

| Binder | binding signal |
| --- | --- |
| B1 | 0.0143 KA relative to UGCAUGU |
| B2 | 0.0151 KA relative to UGCAUGU |
| B3 | 0.0157 KA relative to UGCAUGU |
| B4 | 0.00442 KA relative to UGCAUGU |
| B5 | 0.0236 KA relative to UGCAUGU |
| B6 | 0.014 KA relative to UGCAUGU |
| B7 | 0.00812 KA relative to UGCAUGU |
| B8 | 0.00781 KA relative to UGCAUGU |
| B9 | 0.0037 KA relative to UGCAUGU |
| B10 | 0.0017 KA relative to UGCAUGU |
| B11 | 0.00117 KA relative to UGCAUGU |
| B12 | 0.0144 KA relative to UGCAUGU |
| B13 | 0.00445 KA relative to UGCAUGU |
| B14 | 0.00794 KA relative to UGCAUGU |
| B15 | 0.000356 KA relative to UGCAUGU |
| B16 | 0.0158 KA relative to UGCAUGU |
| B17 | 0.0478 KA relative to UGCAUGU |
| B18 | 0.0016 KA relative to UGCAUGU |
| B19 | 0.0274 KA relative to UGCAUGU |
| B20 | 0.0136 KA relative to UGCAUGU |
